PubChem BioAssay AID2675 (National Center for Advancing Translational Sciences (NCATS), 2010)
The campaign covered roughly 280,000 compounds. About 100 (0.036%) were called active. Inconclusive means that the source gave no clear call. Such entries were picked first, then a sample of the others. The call rests on the fitted dose curve; in most records, active means well fitted inhibition curve with a large enough effect in the signal ratio, with a control signal flat (not every such curve was filed as active); inconclusive means small, poorly fitted or top-dose-only effect, or effect the other way, or a change in a side signal; inactive means no such curve, though single readings can be large or run the other way; the % refers to the signal ratio. Potencies beside an inconclusive call are fits to weak or partial responses and may not hold up. A note “side channel” means that the fit belongs to a control or component signal, not to the main read-out.

Each compound was assayed against Muscleblind-like protein 1 (Homo sapiens) (UniProt Q9NR56) (assay: qHTS Assay for Inhibitors of MBNL1-poly(CUG) RNA binding). Settings: TR-FRET MBNL1-His/biotin-(CUG)12 binding, 665/545 ratio; series mostly up to 57.5 µM.
Chain of UniProt Q9NR56 (Q9NR56 whole entry, looked up): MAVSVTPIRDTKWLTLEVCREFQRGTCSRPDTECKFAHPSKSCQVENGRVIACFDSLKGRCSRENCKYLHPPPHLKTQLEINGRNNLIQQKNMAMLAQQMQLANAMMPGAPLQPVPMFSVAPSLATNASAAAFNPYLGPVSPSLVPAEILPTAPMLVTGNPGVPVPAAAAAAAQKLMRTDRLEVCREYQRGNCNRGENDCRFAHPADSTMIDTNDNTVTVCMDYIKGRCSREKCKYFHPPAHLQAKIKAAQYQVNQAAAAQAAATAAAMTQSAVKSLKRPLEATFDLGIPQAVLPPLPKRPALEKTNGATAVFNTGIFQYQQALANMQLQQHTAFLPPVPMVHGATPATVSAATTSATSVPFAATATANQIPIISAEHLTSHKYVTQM
Procedure, shortened: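 TR-FRET readout: Ex 340 nm, 665/545 nm emission ratio, normalized to buffer-only (basal) and MBNL1-(CUG)12 controls. Complex of MBNL1-His with Biotin-(CUG)12, compounds 92 nM–58 uM, incubated 60 min at room temperature.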
Potency means the concentration at half of the fitted maximal effect; tags describe the fitted curve by direction and shape or compound fluorescence and quenching.

SMILES	Potency
CC(=O)N1C=Cc2c(c(C)c3c([nH]c4ccccc43)c2C)C1	inconclusive: 100 µM [inhibitor, partial curve]
CN(C)/C=C/C(=O)c1ccc([N+](=O)[O-])c(CS(=O)(=O)c2ccccc2)c1	inconclusive: 14.1 µM [quencher, side channel, partial curve]
Brc1ccc(CSc2nnc(-c3cnccn3)n2Cc2ccco2)cc1	inconclusive: 6.31 µM [quencher, side channel, single point]
Cc1ccc2cc(/C=N/NC(=O)[C@@H]3CCCN3)c(Cl)nc2c1	inconclusive: 4.47 µM [quencher, side channel, full curve]
O=[N+]([O-])c1cc2c(cc1/C=N\NS(=O)(=O)c1ccccc1)OCO2	inconclusive: 8.91 µM [quencher, side channel, partial curve, poor fit]
C/C(=N\NC(=O)c1cccc([N+](=O)[O-])c1)c1cccs1	inconclusive: 15.8 µM [quencher, partial curve]
CCOc1ccc(-c2cc(C(=O)NCCCN3CCOCC3)c3ccccc3n2)cc1	inconclusive: 8.91 µM [quencher, side channel, partial curve]
COc1ccc2nc(NC(=S)NC(=O)c3ccco3)sc2c1	inconclusive: 10 µM [inhibitor, single point]
CC(=O)CC(c1ccccc1)S(=O)(=O)c1ccc([N+](=O)[O-])cc1 (centres undefined)	inconclusive: 22.4 µM [quencher, side channel, partial curve]
O=C(N/C(=C/c1cccc([N+](=O)[O-])c1)C(=O)N1CCCC1)c1ccccc1	inconclusive: 25.1 µM [quencher, side channel, partial curve]
COc1ccc(Cn2nnnc2C(c2ccncc2)N2CCOCC2)cc1 (centres undefined)	inconclusive: 39.8 µM [quencher, single point]
O=C(NC1=C(Nc2ccc(Cl)cc2)C(=O)c2ccccc2C1=O)c1ccccc1	inconclusive: 2.82 µM [quencher, side channel, partial curve]
Cc1ccc(C)c(NC(=O)c2cc([N+](=O)[O-])cc([N+](=O)[O-])c2)c1	inconclusive: 2.24 µM [quencher, side channel, full curve]
CCOC(=O)N/N=C/c1ccc(N(CC)CC)cc1O	inconclusive: 39.8 µM [quencher, side channel, single point]
O=C1c2ccccc2C(=O)c2c1cccc2-n1nnc2ccccc21	inconclusive: 2.24 µM [quencher, side channel, partial curve, poor fit]
COc1cc(/C=C(/NC(=O)c2ccccc2)C(=O)N2CCOCC2)c([N+](=O)[O-])cc1OC	inconclusive: 39.8 µM [quencher, side channel, single point]
Cn1cnc(C(F)(F)F)c1-c1ccc([N+](=O)[O-])cc1	inconclusive: 15.8 µM [quencher, partial curve]
Cc1ccc(CNC(=O)C2CC(c3ccccc3[N+](=O)[O-])=NO2)cc1 (centres undefined)	inconclusive: 14.1 µM [quencher, side channel, partial curve]
Cn1c(-c2ccc(F)cc2)cnc1SCC(=O)N1CCCCC1	inactive
COCCNC(=O)/C(C#N)=C/c1ccc2c(c1)OCO2	inconclusive: 14.1 µM [quencher, side channel, partial curve]

SMILES	Potency
CCOC(=O)C1=C(CSc2nc(CC)c(C)cc2C#N)OC(N)=C(C#N)C1c1ccc(OC)cc1 (centres undefined)	inconclusive: 39.8 µM [quencher, side channel, single point]
CC(C)C(OC(=O)c1cc2c(s1)CCCCC2)C(=O)NC(N)=O (centres undefined)	inconclusive: 0.891 µM [fluorescent, side channel, partial curve]
O=[N+]([O-])c1cccc(NC(=S)N2CCOCC2)c1	inconclusive: 28.2 µM [quencher, single point]
c1ccc(Cn2c(CNc3nc4ccccc4n3CCN3CCCCC3)nc3ccccc32)cc1	inconclusive: 100 µM [inhibitor, single point]
Cc1nc(-c2ccc([N+](=O)[O-])cc2)c(-c2ccccc2)o1	inconclusive: 14.1 µM [quencher, side channel, partial curve]
COc1ccccc1CNC(=O)CSC1=NCCS1	inactive
O=c1c2ccccc2nc2ccc(N3CCOCC3)nn12	inconclusive: 12.6 µM [quencher, side channel, partial curve]
C[n+]1cccc(C2C(C#N)=C(N)Oc3c2ccc2ccccc32)c1 (centres undefined)	inconclusive: 11.2 µM [quencher, partial curve]
CC(C)N1CCc2c(sc(NC(=O)c3ccc(S(=O)(=O)N4CCOCC4)cc3)c2C(N)=O)C1	inconclusive: 8.91 µM [quencher, side channel, partial curve]
CC(C)(C)C(=O)NC(=S)N1CCCC1	inconclusive: 12.6 µM [fluorescent, side channel, partial curve, poor fit]
Cc1cc(C)c[n+](-c2nc([O-])sc2C=O)c1	inconclusive: 15.8 µM [quencher, side channel, partial curve]
CCOc1ccc(C(=S)NC2CCCCC2)cc1OC	inactive
CN(N=Nc1ccc([N+](=O)[O-])cc1)c1ccccc1	inconclusive: 20 µM [quencher, side channel, partial curve]
O=C1C2C(C(=O)N1/N=C/c1cccc([N+](=O)[O-])c1)C1C=CC2C12CC2 (centres undefined)	inconclusive: 17.8 µM [quencher, side channel, partial curve]
COc1cccc(CN(CC(=O)NC2CCCC2)C(=O)c2csnn2)c1	inactive
O=C1CC(=O)NC(SCC(=O)Nc2ccccc2[N+](=O)[O-])=N1	inconclusive: 20 µM [quencher, single point]
COc1ccc2nc(SCc3cccnc3)c(C#N)cc2c1	inactive
Cn1c(N)c(C(=O)COC(=O)c2ccc([N+](=O)[O-])o2)c(=O)n(C)c1=O	inconclusive: 0.794 µM [quencher, side channel, full curve]
O=C(CCC(=O)OCc1ccc(Cl)cc1)Nc1cccc([N+](=O)[O-])c1	inconclusive: 22.4 µM [quencher, side channel, single point]
CC(Sc1ccc2c(c1)OCCO2)C(=O)Nc1ncc(Cl)cc1Cl (centres undefined)	inactive

SMILES	Potency
Clc1ccccc1C1=CC(c2ccco2)n2ncnc2N1 (centres undefined)	inconclusive: 28.2 µM [quencher, side channel, single point]
CCCCN(C)CCNC(=O)c1cc(-c2cccnc2)nc2ccc(S(=O)(=O)N3CCC(C)CC3)cc12	inactive
O=C(Cc1ccccc1[N+](=O)[O-])Nc1ccc2c(c1)OCO2	inconclusive: 22.4 µM [quencher, side channel, single point]
COc1cccc(N2CCN(C(=O)c3ccc(CSc4nc5ccncc5[nH]4)cc3)CC2)c1	inconclusive: 79.4 µM [inhibitor, single point]
Cc1cc(N)n(-c2ccc(S(=O)(=O)N3CCCC3)cc2[N+](=O)[O-])n1	inconclusive: 15.8 µM [quencher, side channel, partial curve]
Cc1cc(C(=O)NCC2CCCCC2)ccc1[N+](=O)[O-]	inconclusive: 31.6 µM [quencher, side channel, partial curve]
CCOC(=O)Cc1csc(NC(=O)c2csc3c2CCCC3)n1	inactive
CC1=C(C)C(=O)C(CCCCC#CCCCC#CCO)=C(C)C1=O	inactive
COC(=O)COc1cccc(NS(=O)(=O)c2cccc([N+](=O)[O-])c2)c1	inconclusive: 28.2 µM [quencher, single point]
Cc1ccc(SCC(=O)O/N=C(\N)c2ccc([N+](=O)[O-])cc2)cc1	inconclusive: 35.5 µM [quencher, side channel, single point]
Cc1ccn2cc(CSc3ccccc3N)nc2c1	inactive
COC(=O)C(NC(=O)c1ccc(F)cc1)(Nc1ncc(S(=O)(=O)c2ccc([N+](=O)[O-])cc2)s1)C(F)(F)F (centres undefined)	inconclusive: 20 µM [quencher, side channel, partial curve]
CCC(C)(C)NC(=O)c1cc(C(=O)OC)cc([N+](=O)[O-])c1	inconclusive: 14.1 µM [quencher, side channel, partial curve]
C=CCn1c(O)c(N=NC(=O)CNC(=O)Cc2ccccc2)c2ccccc21	inconclusive: 17.8 µM [quencher, side channel, partial curve]
O=S1(=O)N=C(N/N=C/c2cccs2)c2ccccc21	inconclusive: 31.6 µM [quencher, side channel, single point]
Cc1ccc(-c2c(C)n([O-])c3c([n+]2=O)CCCC3)cc1	inconclusive: 17.8 µM [quencher, side channel, partial curve]
COc1cccc(CNC(=O)C2CCN(S(=O)(=O)c3cccc4nonc34)CC2)c1	inconclusive: 2.82 µM [quencher, side channel, full curve]
Cc1ccc(C(=O)NC2CCN(S(=O)(=O)c3ccc(C)cc3)CC2)cc1	inactive
O=C(NC1CC1)c1ccc(-c2nc3ccccc3s2)s1	inconclusive: 3.55 µM [quencher, side channel, full curve]
